In all, about 110,000 compounds were measured (“z-score”: median about -0.1, highest 2% from about 2 on). The list shows a part of the results. Active and inactive are the calls of the source.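 How the source made its calls: active means z-score in the third read window above 3 or below -3; inactive means the rest.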

This experiment concerns the target Metabotropic glutamate receptor 8 (Rattus norvegicus) (UniProt P70579). Description: rat mGluR8 modulators via GIRK flux, primary screen, cell-based, thallium flux, HTS (AID 488969). The settings on record: HEK293 rat mGluR8, GIRK (G protein-gated inwardly rectifying potassium channel) thallium flux, FluoZin2; at 10 µM; stronger effect = higher value; submaximal glutamate (EC20) added with thallium.
UniProt P70579, sequence (P70579 whole entry, looked up): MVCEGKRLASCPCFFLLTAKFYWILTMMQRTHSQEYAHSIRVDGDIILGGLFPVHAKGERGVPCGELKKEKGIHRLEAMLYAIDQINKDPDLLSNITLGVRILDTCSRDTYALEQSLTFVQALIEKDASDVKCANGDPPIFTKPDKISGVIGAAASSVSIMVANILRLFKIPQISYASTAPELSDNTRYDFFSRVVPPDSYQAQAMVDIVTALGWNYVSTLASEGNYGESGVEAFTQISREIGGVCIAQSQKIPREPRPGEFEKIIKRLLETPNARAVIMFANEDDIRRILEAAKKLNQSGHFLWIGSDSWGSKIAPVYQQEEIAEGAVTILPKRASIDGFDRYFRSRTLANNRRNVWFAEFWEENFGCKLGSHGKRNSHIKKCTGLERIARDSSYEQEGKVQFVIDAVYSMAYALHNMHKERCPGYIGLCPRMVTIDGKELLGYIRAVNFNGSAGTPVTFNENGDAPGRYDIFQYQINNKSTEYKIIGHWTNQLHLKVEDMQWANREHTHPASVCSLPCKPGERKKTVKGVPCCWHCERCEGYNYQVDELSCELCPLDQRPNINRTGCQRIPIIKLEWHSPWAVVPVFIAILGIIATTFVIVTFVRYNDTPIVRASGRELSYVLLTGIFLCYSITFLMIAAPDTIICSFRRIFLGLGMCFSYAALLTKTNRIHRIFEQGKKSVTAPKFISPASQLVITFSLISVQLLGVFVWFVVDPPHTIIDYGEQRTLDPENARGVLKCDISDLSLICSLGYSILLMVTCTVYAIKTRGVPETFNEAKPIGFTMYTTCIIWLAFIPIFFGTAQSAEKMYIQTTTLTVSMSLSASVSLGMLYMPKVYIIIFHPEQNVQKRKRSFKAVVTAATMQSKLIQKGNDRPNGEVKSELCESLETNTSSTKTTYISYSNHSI
The molecule `O=C(Nc1ccc2oc(-c3ccccc3)nc2c1)c1ccccc1F` returned a z-score of 0.205.
Regarding `CSc1cc(C)nc(N(C)C(C)=O)n1`, the z-score turned out to be 0.129.
With `CCCNC(=O)c1c(NC(=O)C2COc3ccccc3O2)sc2c1CCCC2` (stereo unspecified) the figure was 0.754; with `COc1ccccc1N(CC(=O)NCC(C)C)S(=O)(=O)c1cccs1`, -0.207.
With `COc1ccc(OC)c(NC(=O)c2cccc(Cn3cc(Br)c([N+](=O)[O-])n3)c2)c1` the figure was -0.176; with `O=c1oc2ccccc2c2c1ncn2CCN1CCOCC1`, -0.358.
With `CSc1nc(=O)n2cccc(C)c2n1` the figure was -0.224; with `O=c1c(Cl)c(NCc2ccccc2)cnn1C12CC3CC(CC(C3)C1)C2`, -0.198; with `O=C(/C=N/O)NCCCN1CCCCCC1`, 0.186.
With `C=CCNC(=O)COC(=O)c1cc(S(=O)(=O)N2CCOCC2)ccc1N1CCCCC1`, the z-score is -0.5.
Consider `CCOC(=O)CCC(NC(=O)c1ccc(NCN2C(=O)c3ccccc3C2=O)cc1)C(=O)OCC` (stereo unspecified), for which the z-score was -1.04.
With `CCc1ccc(C(=O)/C=C/Nc2ccc(S(=O)(=O)Nc3onc(C)c3C)cc2)cc1` the figure was 0.0301; with `O=C(Nc1c(C(=O)O)oc2ccc(Br)cc12)c1ccccc1`, -0.64; with `CC(/C=N/n1c(-c2ccccc2)n[nH]c1=S)=C\c1ccco1`, active: 6.02.
In turn, `COc1ccc(OC)c(C(=O)CSc2nc3ccccc3n2CC(=O)NC(C)(C)C)c1` returned a z-score of -0.0139.
With `O=C(COc1ccc2ccccc2c1)NNC(=O)c1cnccn1` the figure was 0.127.
With `CCN(CC)C(=O)C1CCCN(Cc2ccccc2)C1` (stereo unspecified) the figure was 0.12.
With `Cc1nn(-c2ccc(C(F)(F)F)cn2)c(C)c1Oc1ccccc1O` the figure was 2.25.
For `CCOC(=O)C(=O)/C(C#N)=C/Nc1ccc(Cl)cc1`, the z-score was -0.436.
With `Cn1c(C(=O)NCc2ccccn2)cc2c(=O)n3ccccc3nc21` the figure was -0.626.
With `COC(=O)c1ccc(COc2cccc3c2CCN(Cc2ccccc2)C3=O)o1` the figure was -0.45; with `O=C(NCc1ccccc1)N1CCN(c2ccc(F)cc2)CC1`, -0.204; with `O=c1cc(N2CCc3ccccc3C2)[nH]c(=O)n1Cc1ccc(F)cc1`, -0.108.
With `Cn1c(=O)[nH]c(=O)c2c1nc(NCc1ccccc1)n2CCCc1ccccc1` the figure was -0.132.
Regarding `Cc1ccc(/C(N)=N/OC(=O)c2cccs2)cc1`, the z-score is -0.371.
In the case of `COc1ccc(S(=O)(=O)N(C)CC(=O)Nc2ccc(C(F)(F)F)cc2)cc1Cl`, the z-score was found to be 1.57.
With `CCCNS(=O)(=O)c1ccc(CCC(=O)N2CCC(C)CC2)cc1` the figure was -0.21; with `CCOc1ccccc1CNC(=O)C1CCCN(c2nc3ccccc3o2)C1` (stereo unspecified), -0.0784; with `Cc1cc(OCn2ccc(C(=O)O)n2)ccc1Cl`, 4.79e-05.
`COc1ccc(N(C(=O)c2ccco2)S(=O)(=O)c2cc(Cl)c(Cl)cc2Cl)cc1` had a z-score of -0.048.
With `CC(=O)NC(=S)Nc1ccc(NC(=O)COc2ccc(Cl)cc2)cc1` the figure was -0.0633; with `Cc1oc2ccc(OCc3ccc(F)cc3)cc2c1C(=O)O`, -0.0289; with `COc1ccc(N2CCN(c3nc(NCCc4ccc(OC)c(OC)c4)nc(OC)n3)CC2)cc1`, -0.506.
With `CCNC(=O)CC1C(=O)N(c2ccccc2)C(=O)N1CCC(C)C` (stereo unspecified) the figure was -0.12; with `c1coc(-c2nc3c4c5c(sc4ncn3n2)CCCC5)c1`, -0.00263.
With `O=C(NCCc1ccccc1)c1ccccc1NS(=O)(=O)N1CCCC1` the figure was 0.642; with `CC(C)CN1CN(Cc2ccco2)CNC1=S`, -0.639.
Molecule `COc1ccccc1CNC(=O)C[n+]1ccccc1` gave a z-score of 0.448.
With `CCCn1c(SC(C(=O)Nc2cc(C)ccc2OC)c2ccccc2)nc2ccccc2c1=O` (stereo unspecified) the figure was active: 3.61; with `Cn1nnnc1SCC(=O)Nc1ccc(Br)cc1Cl`, 0.229; with `COc1cccc(NC(=S)NCc2ccccn2)c1`, -0.104.
With `O=C(CC(c1ccco1)C1CCCCC1=O)c1ccco1` (stereo unspecified) the figure was 0.987; with `CC(C)NC(=O)c1ccc2c(=O)n(Cc3ccco3)c(=S)[nH]c2c1`, 0.167.
The molecule `Clc1ccc2nc(N3CCCCC3)[nH]c2c1` came in with a z-score of -0.459.
With `CCC(C)NC(=O)C1CCN(C(=O)N(C)C)CC1` (stereo unspecified) the figure was 0.522; with `CCN(CC)C(=O)CP(=O)(c1ccccc1)c1ccccc1`, -0.0476; with `COc1ccccc1NC(=O)N1CCCC1C(=O)NCc1ccc(F)cc1` (stereo unspecified), 1.1.
With `Cc1cc(NC(=O)CSc2nc(-c3ccco3)cc(C(F)(F)F)n2)no1` the figure was -0.109; with `Cc1ccc(S(=O)(=O)NCCNC(=O)N2CCOCC2)cc1`, 0.182.
With `Cc1c(NC(=O)c2ccc3c4c(cccc24)CC3)c(=O)n(-c2ccccc2)n1C` the figure was -0.0564; with `CCOC(=O)c1ccc(NC(=O)CCC2COc3ccccc3O2)cc1` (stereo unspecified), -0.191.
On to `Cn1c(-c2ccccc2)cnc1NCc1cc2c(cc1[N+](=O)[O-])OCO2`, for which the z-score was -1.22.
With `CCCCC(=O)NS(=O)(=O)c1ccc(NS(C)(=O)=O)cc1` the figure was 0.0545; with `Cn1c(C2=C(O)CN(c3ccc4c(c3)OCCO4)C2=N)nc2ccccc21`, -0.527.
With `C/C(CC(=O)NC1C2CC3CC(C2)CC1C3)=N\NC(=O)Cc1cccs1` (stereo unspecified) the figure was -0.142; with `C=C(C)CN(CC)CCC(=O)Nc1ccc(OC)cc1OC`, -0.5.
With `Cc1ccc(-c2cnn(-c3cccc(C(F)(F)F)c3)c2N)cc1` the figure was -0.183.
In the case of `COc1ccc(S(=O)(=O)N(c2onc(C)c2Cl)S(=O)(=O)c2ccc(OC)cc2)cc1`, the z-score was -0.13.
With `Cc1ccc(-c2nnn(CC(=O)N3CCCc4ccccc43)n2)cc1` the figure was 0.105.
With `CCOc1ccccc1C(=O)Nc1ccc2nc(N3CCN(c4ncccn4)CC3)cc(C)c2c1` the figure was -0.112.
For `COc1ccc(/C=C/C(=O)c2cc(Br)ccc(=O)c2O)cc1`, the z-score was active: 3.14.
With `Cn1ncc(N=Cc2c(O)ccc3ccccc23)c1C(=O)N1CCOCC1` the figure was -0.205; with `Cc1nnc(SC(C)C(=O)Nc2ccc(S(=O)(=O)NC3CCCCC3)cc2)s1` (stereo unspecified), -0.213.
`CC1Cc2ccccc2N1C(=O)CSc1nc2ccccc2o1` (stereo unspecified) yielded a z-score of -1.12.
With `CC(C)CNC(=O)COC(=O)/C=C/c1ccccc1[N+](=O)[O-]` the figure was -0.0356.
With `CCOc1cc(/C=N\NC(=O)c2ccc(NC(=O)C(C)(C)C)cc2)ccc1OC(=O)c1cccc(C)c1` the figure was -0.144.
Molecule `COc1ccc(-c2nnc(SCC(=O)Nc3nc4ccccc4s3)n2C)cc1` showed a z-score of -0.454.
With `CC(=O)c1cccc(NC(=O)COc2ccc(S(=O)(=O)N3CCCCC3)cc2)c1` the figure was -0.505.
In the case of `S=c1[nH]nc(-c2ccco2)n1/N=C/c1ccc(Cl)cc1Cl`, the z-score was active: 6.87.
The molecule `Cc1ccnc(NC(=O)c2cc(S(=O)(=O)N3CCCCC3)ccc2Cl)c1` had a z-score of -0.103.
With `CCCc1cc(N2CCN(C(=O)c3ccco3)CC2)n2c(nc3ccccc32)c1C#N` the figure was -0.829; with `CCOC(=O)Nc1ccc(C)cc1C`, -0.166.
With `NC(=O)c1c(NC(=O)Cc2cccs2)sc2c1CCC2` the figure was -0.944; with `CC(Oc1ccc(F)cc1)C(=O)Nc1ccc2ccccc2c1` (stereo unspecified), -0.37; with `CC(C)OC(=O)c1c(NC(=O)c2cnn3c2NC(c2ccccc2)CC3C(F)(F)F)sc2c1CCCC2` (stereo unspecified), -0.108.
With `CN1C(=O)SC(Nc2ccccc2)C1=O` (stereo unspecified) the figure was -0.00139; with `CCC(=O)Oc1ccc(-c2cnc3ccccc3n2)cc1`, -0.929; with `O=C(Nc1ccccc1)c1ccccc1CC[N+](=O)[O-]`, -0.0873.
With `Cc1cc(-c2c(C)n([O-])c(C)c(C)[n+]2=O)ccc1F`, the z-score was -0.1.
With `Cc1ccc(OCCCn2c(=O)sc3ccccc32)cc1` the figure was -0.0299; with `N#CC1=C(N)SC(N)=C(C#N)C1c1ccoc1`, -0.768.
With `CC12CCC(C(=O)N(NC(=O)c3ccccc3Cl)C1=O)C2(C)C` (stereo unspecified) the figure was 0.00342; with `CCOC(=O)c1cn(CC)c2cc(Cl)c([N+](=O)[O-])cc2c1=O`, -0.287; with `CCN(CC)c1ccc(CNc2ccc(Br)cn2)cc1`, -0.0669.
`COc1ccc(N2C(=O)C3C4c5ccccc5C(C=Nc5ccc(C)cc5C)(c5ccccc54)C3C2=O)cc1` (stereo unspecified): the z-score was -0.139.
With `O=C(CCS(=O)(=O)c1ccccc1)Nc1cccc(-c2nc3ccccc3s2)c1` the figure was -0.366; with `CCOc1ccc(-c2nnc3sc(COc4ccccc4)nn23)cc1`, 0.953.
With `CCc1nnc(NC(=O)CCN2C(=O)c3ccccc3S2(=O)=O)s1` the figure was 0.0115.
With `CCOC(=O)c1cnc(-n2nc(C)cc2C)nc1NCCO` the figure was 0.000586.
With `COc1cc(OC)cc(C(=O)Nc2ccc(-c3nc4ccccc4o3)cc2)c1`, the z-score was -0.273.
With `O=S(=O)(Nc1ccccn1)c1ccc(C2CCCCC2)cc1` the figure was 0.0558.
With `CC(=O)Nc1ccc(S(=O)(=O)N2CCN(S(=O)(=O)N3CCCCCC3)CC2)cc1` the figure was -0.27; with `O=C(NCCc1c[nH]c2ccccc12)/C(=C\c1cccnc1)NC(=O)c1ccco1`, -0.07.
With `CCOC(=O)c1c(-c2ccccc2)oc2ccc(OC(C)=O)cc12` the figure was -0.454.
Take `CSC(=NC#N)N1CCN(c2ccccc2)CC1`: the z-score was -0.78.
`O=C(NCCc1ccccc1)c1cccc([N+](=O)[O-])c1` registered a z-score of -0.2.
With `CCC(=O)Nc1nnc(CSCc2ccc(F)cc2)s1` the figure was 0.0266.
The molecule `COc1cccc(-c2nnc(SCCOc3ccc4c(C)cc(=O)oc4c3)o2)c1` displayed a z-score of 0.0574.
With `NC(=O)CNC(=O)[C@@H]1CC2(CC(c3ccccc3)=NO2)CN1C(=O)c1ccc(Br)cc1` (stereo partly specified) the figure was -0.124.
With `Cc1ccc(NC(=O)C2CC(=O)NC(N3CCCCC3)=N2)cc1Cl` (stereo unspecified) the figure was -0.889; with `COc1ccc(CN(C(=O)CSc2nnc(-c3ccccc3C)o2)c2ccc(F)cc2)cc1`, -0.159.
With `Cn1c(Cn2cnc3ccccc32)nc2ccccc21` the figure was 0.0047; with `CCOC(=O)c1cc(-c2ccccc2)sc1NC(=O)C(C)Sc1nnc(N)s1` (stereo unspecified), -0.246.
Take `Cc1nn(C)c(=O)n1-c1ccc(OCc2ccccc2)cc1`: the z-score was -0.0419.
With `O=C(NCCc1ccccc1)/C(=C\c1ccc([N+](=O)[O-])cc1)NC(=O)c1ccccc1` the figure was -0.177.
With `O=C(NCCCn1ccnc1)c1cc2c(s1)CCCCC2` the figure was -0.182; with `O=C(N/N=C/c1cccc(Br)c1)c1ccc(Cn2cc(Br)cn2)o1`, -0.645; with `Cc1cc(OCC(C)C)ccc1/C(O)=C1/C(=O)C(=O)N(Cc2cccnc2)C1c1ccncc1` (stereo unspecified), -0.0254.
With `c1ccc(CCc2nc(-c3ccccc3)no2)cc1` the figure was 0.0313; with `COc1ccc(C)cc1S(=O)(=O)N1CCC(C(=O)NCCc2ccccc2)CC1`, -0.227.
The molecule `NC1=NC(=O)C(Cc2cccc(Cl)c2)S1` (stereo unspecified) displayed a z-score of -0.248.

Source of the values: PubChem BioAssay AID488969 (Vanderbilt High Throughput Screening Facility, 2010).
